According to the supplement of paper PMC12217912:
This is one part of the list. The full chains were built here from the parent and the listed change. Inactive controls read about 0.05.

B1: TEV protease; numbered along this chain (parent)
chain: MGESLFKGPRDYNPISSSICHLTNESDGHTTSLYGIGFGPFIITNKHLFRRNNGTLVVQSLHGVFKVKDTTTLQQHLVDGRDMIIIRMPKDFPPFPQKLKFREPQREERICLVTTNFQTKSMSSMVSDTSCTFPSGDGIFWKHWIQTKDGQCGSPLVSTRDGFIVGIHSASNFTNTNNYFTSVPKNFMELLTNQEAQQWVSGWRLNADSVLWGGHKVFMVKPEEPFQPVKEATQL

Variants of: B1
Experiment: raw area under fraction-flipped curve 0-4 h after induction (AUC4h, not background-subtracted), DNA-recorder readout of cleavage of the substrate (dimensionless); higher = more cleavage of the substrate by the protease variant
Details: temperature: 34 °C; time window: 0-4 h after rhamnose induction
Description: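 In vivo DNA recorder in E. coli TOP10(DE3) ΔrhaA at 34 °C. Each TEVp single-site mutant (parent TEVp 0) is paired with a single-site variant of the 7-mer TEVs (canonical ENLYFQ|S). The substrate sits between flexible linkers in a Bxb1-sfGFP-TEVs-SsrA fusion, so cleavage stabilises Bxb1 and speeds flipping of a recombination array, read by NGS. The value is the raw area under the fraction-flipped curve over 0-4 h after rhamnose induction (AUC4h), with ≥20 reads per time point. It is not background-subtracted; inactive controls average about 0.047.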
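Further: Bxb1 expression induced with 0.2% (w/v) L-rhamnose at OD600 near 0.5, cultures sampled hourly, flipped fraction per protease–substrate barcode pair counted by paired-end Illumina sequencing.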

Row | Variant | area with substrate ENLYAQS | area with substrate ENLYDQS | area with substrate ENLYEQS | area with substrate ENLYHQS | area with substrate ENLYIQS | area with substrate ENLYNQS | area with substrate ENLYPQS | area with substrate ENLYQQS | area with substrate ENLYRQS | area with substrate ENLYSQS | area with substrate ENLYTQS | area with substrate ENLYVQS | area with substrate ENLYWQS | area with substrate ENLYYQS | area with substrate ENLYGQS | area with substrate ENLYKQS | area with substrate ENLYLQS | area with substrate ENLYMQS | area with substrate ENLYCQS
1 | F163I | 0.0829 | 0.0621 | 0.0741 | 0.0557 | 0.102 | 0.0626 | 0.0084 | 0.0692 | 0.0585 | 0.0583 | 0.0608 | 0.0877 | 0.0429 | 0.0715 | – | – | – | – | –
2 | L22S | 0.0505 | 0.0386 | 0.0528 | 0.0493 | 0.0442 | 0.049 | 0.0567 | 0.0743 | 0.029 | 0.0562 | 0.044 | 0.0353 | 0.0466 | 0.0492 | 0.0416 | 0.0564 | 0.0417 | 0.0397 | –
3 | P94W | 0.0803 | 0.0621 | 0.0659 | 0.0924 | 0.126 | 0.0723 | 0.073 | 0.0572 | 0.053 | 0.0678 | 0.0773 | – | 0.0835 | 0.0914 | 0.065 | 0.0638 | 0.0848 | 0.0788 | –
4 | I15P | 0.0592 | – | 0.0619 | 0.0661 | – | 0.0746 | 0.0618 | 0.0663 | 0.0721 | – | – | 0.114 | 0.0594 | – | 0.0578 | 0.0603 | – | 0.0706 | –
5 | I110K | 0.0475 | 0.0589 | 0.0625 | 0.0604 | 0.0563 | – | 0.0533 | 0.0511 | 0.0481 | 0.0539 | – | 0.063 | 0.0558 | – | – | 0.0459 | 0.059 | 0.0544 | –
6 | F133M | 0.099 | 0.0693 | – | 0.081 | 0.118 | 0.0562 | 0.0798 | 0.0956 | – | 0.0765 | 0.109 | 0.166 | 0.0926 | – | 0.068 | – | – | 0.129 | –
7 | G213R | 0.0602 | 0.0577 | 0.0455 | 0.0566 | 0.0565 | 0.0632 | 0.0503 | 0.0595 | 0.0526 | 0.0589 | 0.0605 | 0.065 | 0.0594 | 0.0544 | 0.0688 | 0.0561 | 0.0548 | 0.0575 | 0.0614
8 | R204M | 0.0631 | 0.0568 | 0.062 | 0.0713 | 0.153 | 0.0673 | 0.0719 | 0.072 | 0.066 | 0.087 | 0.0889 | 0.112 | 0.101 | 0.0614 | 0.0666 | 0.0559 | – | 0.1 | 0.102
9 | I19W | 0.0508 | – | 0.0518 | – | – | 0.0529 | 0.0591 | 0.0495 | 0.0461 | 0.0473 | 0.0456 | – | 0.0539 | 0.0496 | 0.0488 | 0.0445 | 0.0488 | 0.0561 | 0.0545
10 | S127I | 0.0987 | – | 0.0714 | 0.078 | 0.167 | 0.0724 | 0.0748 | – | 0.063 | 0.0726 | 0.0815 | 0.0736 | – | 0.0604 | 0.0633 | 0.0485 | 0.0801 | 0.0994 | –
11 | P134Q | 0.0567 | – | 0.0774 | 0.0728 | 0.117 | 0.0821 | 0.0621 | – | 0.0625 | – | – | 0.119 | – | – | – | – | – | 0.0654 | –
12 | S169I | 0.0585 | 0.0571 | 0.0591 | 0.0614 | 0.0578 | 0.0518 | 0.0527 | 0.0618 | 0.0595 | 0.0618 | – | 0.0596 | 0.0604 | 0.0653 | 0.0541 | 0.0582 | – | 0.0551 | 0.0542
